PubChem BioAssay AID2546 (National Center for Advancing Translational Sciences (NCATS), 2010)
Screen size: about 310,000 compounds; about 11,000 (3.5%) were called active. The shares of active, inactive and inconclusive entries below differ from those in the screen. The call rests on the fitted dose curve; in most records, active means well fitted inhibition curve with a large enough effect; inconclusive means small, poorly fitted or top-dose-only effect, or effect the other way; inactive means flat fitted curve, though single readings scatter. No potency is given beside an inconclusive call; the fits are too rough.

Experiment: VP16 counterscreen qHTS for inhibitors of ROR gamma transcriptional activity;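 further: Gal4-VP16 expression switched on by copper sulfate through the metallothionein promoter; nearly all actives have a fitted effect of over 50% in size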
Details: Drosophila S2 Gal4-VP16 UAS-luciferase, luminescence, 20 h; series mostly up to 53.6 µM
Potency means the concentration at half of the fitted maximal effect; tags describe the fitted curve by direction and shape.

SMILES | Potency
CCc1cc2c(Sc3nc4ccccc4s3)ncnc2s1 | inconclusive [inhibitor, single point]
COCCCNC(=O)C1CCCN(S(C)(=O)=O)C1 (stereo not given) | inconclusive [activator, single point]
O=C(NNC(=S)Nc1ccc(Br)cc1)c1ccc(N2CCOCC2)c([N+](=O)[O-])c1 | active: 12.6 µM
CC(=O)NC(CSC(CC(=O)c1ccco1)c1ccc(C)cc1)C(=O)O (stereo not given) | inconclusive [activator, single point]
CCOc1ccc(-c2c(=O)n(O)c3ccccc3[n+]2[O-])cc1 | inconclusive [inhibitor, single point]
CC1=NN(C(=O)c2ccc(C)cc2)C(O)(C(F)(F)OC(F)(F)F)C1 (stereo not given) | active: 11.2 µM
CCOC(=O)N/N=C/c1cn(CCCOc2ccccc2)c2ccccc12 | inactive
CC1=NN(C(=O)c2ccc(Cn3nc(C)c(Br)c3C)cc2)C(O)(C(F)(F)F)C1 (stereo not given) | active: 12.6 µM
CCN(CC)S(=O)(=O)c1ccc(C(=O)N2CCN(c3ncccn3)CC2)cc1 | inactive
N#C/C(=N\Nc1cccc(Cl)c1)C(=O)c1ccccc1 | inconclusive [inhibitor, single point]
Oc1ccc(-c2n[nH]c(C(F)(F)F)c2-c2ccccc2)c(O)c1 | active: 1.58 µM
CCN(CC)c1ccc(C2C3CCCCC3(O)CCN2CC(=O)Nc2ccccc2)cc1 (stereo not given) | inconclusive [inhibitor, single point]
Clc1ccc(-c2cnc3n2CCCCC3)cc1 | inconclusive [inhibitor, single point]
c1ccc(-c2cn(C[C@H]3CC[C@H](Cn4cc(-c5ccccn5)nn4)O3)nn2)nc1 | inconclusive [inhibitor, single point]
COc1cccc(-c2nc(-c3ccccn3)no2)c1OC | inactive
O=C(c1cccc(-c2ccco2)c1)N1CCCC(N2CCN(c3ccc(F)cc3)CC2)C1 (stereo not given) | inconclusive [inhibitor, single point]
COc1cc(CN2CCN(CCCc3ccccc3)C(CCO)C2)cc(OC)c1O (stereo not given) | inconclusive [inhibitor, single point]
CCC(=O)Nc1ccc(C(=O)CSc2nc3ccccc3cc2CC)cc1 | inconclusive [activator, single point]
CCS(=O)(=O)c1ccc(N=Nc2ccc(O)c3ncccc23)c(OC)c1 | active: 15.8 µM
Cc1[nH]nc(-c2ccc(O)cc2O)c1Oc1ccccc1 | inconclusive [inhibitor, single point]
CC1=NN(c2nc(-c3ccc(C)cc3)cs2)C(=O)C1N=Nc1cccc(C)c1 (stereo not given) | inconclusive [inhibitor, partial curve]
O=C(N/C(=C/c1ccc(Br)cc1)C(=O)N1CCCCC1)c1ccccc1F | inactive
Cc1[nH]c(=O)c(C#N)c(C)c1[N+](=O)[O-] | inactive
C=C1c2cccc(OC)c2O[C@H](C(=O)OCC)[C@@H]1CC(CC)CCCC (stereo not given in full) | inconclusive [inhibitor, single point]

SMILES | Potency
CCc1cccc(CC)c1NC(=O)CSc1nc2ccc(N3C(=O)C4C5C=CC(C5)C4C3=O)cc2s1 (stereo not given) | inconclusive [inhibitor, partial curve, poor fit]
Cc1ccc(NC(=S)NC2CCCC2)c(C)c1 | active: 6.31 µM
Cc1ccccc1NC1=C/C(=N\S(=O)(=O)c2cccs2)c2ccccc2C1=O | active: 5.62 µM
CCCn1c(SCC(=O)Nc2ccc(NC(=O)CC)cc2)nc2c1c(=O)n(C)c(=O)n2C | inconclusive [inhibitor, single point]
CC(C)N=C(NC#N)SCc1ccccc1 | inconclusive [inhibitor, single point]
COc1ccc(-n2nc(C(=O)NCC(=O)N3CCN(c4ccccn4)CC3)c3ccccc3c2=O)cc1 | inconclusive [inhibitor, single point]
Cc1cc(NC(=O)CN2C(=O)CC(c3ccco3)Sc3ccccc32)no1 (stereo not given) | inconclusive [inhibitor, single point]
CCOc1ccc(-c2csc(/C(C#N)=C\c3ccc(O)c([N+](=O)[O-])c3)n2)cc1 | inconclusive [inhibitor, single point]
CCc1cccc(C)c1N(C(=O)Cn1c(=O)[nH]c2ccccc21)C(C)COC (stereo not given) | inconclusive [inhibitor, single point]
COc1ccccc1-n1cc(C(=O)NCC(=O)N2CCN(c3ccccc3)CC2)c2ccccc2c1=O | inconclusive [inhibitor, single point]
COc1c(-c2coc3cc4c(cc3c2=O)CC(OC(C)=O)C(C)(C)O4)ccc2c1C=CC(C)(C)O2 (stereo not given) | active: 1.26 µM
Cc1ccccc1OC1C(=O)N(CC2CCCO2)C1c1ccc2c(c1)OCO2 (stereo not given) | inconclusive [inhibitor, single point]
Cc1ccc(-c2nn(Cc3ccccc3)cc2/C=C/C(=O)O)cc1 | inactive
Cc1ccc(C)c(NC(=O)c2ccc(S(=O)(=O)C(F)F)cc2)c1 | inconclusive [activator, full curve, poor fit]
Nc1c(C(=O)Nc2ccc(S(=O)(=O)N3CCCC3)cc2)sc2nc3cc4c(cc3cc12)CCC4 | inactive
N/C(Cc1ccc(Cl)cc1Cl)=N\OC(=O)c1ccc(Br)o1 | inconclusive [inhibitor, single point]
COc1ccc(NC(=O)Cn2ncc(Cl)c(Cl)c2=O)cc1S(=O)(=O)N1CCOCC1 | inconclusive [inhibitor, single point]
CNC(=S)N(CCc1c(C)[nH]c2ccc(OC)cc12)Cc1cccnc1 | inactive
Cc1ccc(S(=O)(=O)NCc2ccc(C(=O)NCCN(Cc3ccccc3)C(C)C)cc2)cc1 | inactive
CCCN(CCC)C(=O)CSc1nc2n[nH]c(C)c2c(=N)n1-c1ccc(OC)cc1 | inconclusive [inhibitor, single point]
Cc1sc2nc(SCC(=O)c3cccs3)n(Cc3ccco3)c(=O)c2c1C | inactive
O=C1N=C(N2CCN(c3ccccc3)CC2)S/C1=C/c1cccs1 | inconclusive [activator, full curve]
S=C(NCc1cccnc1)Nc1ccc(Oc2ccc(Cl)cc2)cc1 | inconclusive [inhibitor, single point]
CCN(CC)c1nc(-c2ccccc2)nc2c1sc(=S)n2CC | inactive

SMILES | Potency
O=C(c1ccc(CNS(=O)(=O)c2ccc(Br)cc2)cc1)N1CCCC1 | inconclusive [activator, single point]
CCN1C(=O)C(CC(=O)Nc2ccc(OC)cc2)N(CCc2ccccc2F)C1=S (stereo not given) | inactive
O=C1N/C(=C/c2ccco2)C(=O)N1Cc1ccccc1F | inconclusive [activator, single point]
COc1ccccc1-c1nc(-c2ccccn2)no1 | active: 7.08 µM
Cc1ccc(C(=O)N2CCN(C)CC2)cc1S(=O)(=O)N1CCCCCC1 | inactive
CCOC(=O)Cn1c(=O)oc2cc(S(=O)(=O)NCCc3ccc(C)cc3)ccc21 | inconclusive [inhibitor, partial curve]
COc1cc(C(=S)N2CCC(C)CC2)ccc1O | inconclusive [inhibitor, single point]
O=[N+]([O-])c1cccc2c(N3CCCC3)ccnc12 | inconclusive [inhibitor, single point]
O=C(NCCc1ccccc1)c1c(F)cccc1F | inconclusive [inhibitor, single point]
O=C(CN1C2=NCCCN2c2ccccc21)c1ccc([N+](=O)[O-])cc1 | inconclusive [activator, partial curve]
CC(SC#N)C(=O)C12CC3CC(CC(C3)C1)C2 (stereo not given) | inactive
CCCCc1ccc(NC(=O)NCc2ccccn2)cc1 | inconclusive [activator, partial curve]
COc1ccc(/C=N/Nc2cc(C)nc3c(C)cccc23)cc1 | inconclusive [inhibitor, single point]
CCOC(=O)Cc1csc(SCC(=O)Nc2cc(Cl)ccc2Oc2ccccc2)n1 | inconclusive [inhibitor, single point]
CC1(C)CC(=O)C(C(=O)/C=C/NCCc2ccccc2)C(=O)C1 | inactive
COc1cccc(NS(=O)(=O)c2ccc3[nH]cc(C(=O)NCCC(C)C)c(=O)c3c2)c1 | inconclusive [inhibitor, single point]
CC1CCC(NC(=O)C2c3ccccc3C(=O)N2Cc2cccs2)CC1 (stereo not given) | inconclusive [activator, single point]
Cc1cc(C)c(-c2csc(NC(=O)c3n[nH]c(=O)c4ccccc34)n2)c(C)c1 | inconclusive [inhibitor, single point]
Nc1c(N2CCN(c3ccccc3)CC2)c2ccccc2oc1=O | inactive
CCn1ccnc1CN(C)Cc1nc(-c2ccccc2)no1 | inconclusive [inhibitor, full curve, poor fit]
O=C(CNC(=O)C(c1ccccc1)c1ccccc1)N/N=C\c1ccc2c(c1)OCO2 | inconclusive [inhibitor, single point]
CCN1C(=O)C(CC(=O)Nc2ccc(OC)cc2)N(CCc2ccc(OC)cc2)C1=S (stereo not given) | inconclusive [inhibitor, single point]
